Assay results: ChEMBL document CHEMBL4888484, “Replenishing the malaria drug discovery pipeline: Screening and hit evaluation of the MMV Hit Generation Library 1 (HGL1) against asexual blood stage Plasmodium falciparum ,using a nano luciferase reporter read-out” (2022)
Out of some 150,000 compounds screened, about 540 (0.36%) showed an effect of 50% or more. This is one part of the list.

tested on: Plasmodium falciparum; test: Primary screen in NF54 nanoGlo assay, in single point, at 2uM, 72h; a lower Z score goes with more inhibition; format: functional, Erythrocyte; settings: timepoint 72 hour

| SMILES | % Inhibition [%] | Z score |
| --- | --- | --- |
| O=C(CCC(F)(F)F)NCc1cncn1C1CC1 | -12 | 1.3 |
| CCNC(=O)Nc1ccc2c(c1)CN(S(=O)(=O)c1ccc3c(c1)CCC3)CCO2 | 4 | -0.8 |
| CCNS(=O)(=O)c1ccc2c(c1)N(CC(C)(C)CCC#N)CC2 | -44 | 5.2 |
| CC(=O)N1CCN(c2nc3c(s2)C[C@@H](C(=O)NCc2ccc(C)cc2)CC3)CC1 | 34 | -3.86 |
| COc1cc2c(cc1OC)[C@@]1(Nc3c-2c(-c2ccccc2)nn3-c2ccccc2)C(=O)Nc2ccccc21 | 8 | -0.96 |
| Cc1csc2c(N[C@H]3CCCN(CCO)C3=O)ncnc12 | -18 | 1.87 |
| Cc1cc(C(=O)O)nc(NCC2(N(C)C)CCCCC2)n1 | -1 | 0.13 |
| COc1ccc([C@@]2(CC(=O)N3CCN(Cc4nccn4C)CC3)CC(=O)N(C3CCCC3)C2=O)cc1 | 13 | -1.81 |
| COc1ccc(C)cc1-n1cc(C(=O)N(C)c2cccc(C)n2)ccc1=O | 0 | -0.04 |
| Cn1cccc1C(=O)N[C@@H]1CN(c2ncccn2)C[C@H]1CO | -11 | 2.05 |
| Cc1cc(NC(=O)Cn2c(=O)n(CC3CCC(C(=O)NCCc4ccccc4)CC3)c(=O)c3ccccc32)n[nH]1 (centres undefined) | -12 | 1.88 |
| C[C@@H](C1CC1)n1cc(NC(=O)Nc2scnc2C2CC2)cn1 | 3 | -0.45 |
| CCOC(=O)CCC(=O)N1CCN(c2nc(Cc3ccc(C)cc3)nc3c2c(C)nn3-c2ccccc2)CC1 | -12 | 1.15 |
| c1ccc(-c2nc(-c3cnccn3)no2)c(COC2CCOCC2)c1 | -20 | 1.81 |
| COc1cc(C(=O)N2CCCc3ccnc(N(C)C)c32)ncn1 | -13 | 2.02 |
| Cc1cc(C(=O)N2CCn3c(nn(CC(C)C)c3=O)[C@H]2c2ccccc2)c(C)o1 | 4 | -0.61 |
| c1cc(C2CCCC2)nc(NCc2noc(C3CCCC3)n2)n1 | -7 | 1.21 |
| Cc1ccc(C(=O)Nc2cc(C(=O)NC3CCCCC3)ccc2Cl)cc1C | -25 | 2.95 |
| Cc1csc([C@@H]2CCCN2C(=O)Nc2ccn(C)c(=O)c2)n1 | -12 | 1.38 |
| C[C@H]1Cc2cc(S(=O)(=O)N(C3CC3)C3COC3)ccc2O1 | -14 | 2.2 |
| CCCc1ccc(-c2nc3c(cnn3CC)[nH]2)o1 | -9 | 1.57 |
| CCN1C(=O)C2(CCN(S(=O)(=O)c3ccc(C)c(F)c3)CC2)c2ccccc21 | -8 | 1.28 |
| CCCc1cc(C(=O)N2CCN(CC=C(C)C)[C@@H]3CS(=O)(=O)C[C@@H]32)[nH]n1 | -2 | 0.24 |
| Nc1ccc(CNC2CCCCC2N2CCOCC2)cn1 (centres undefined) | -4 | 0.48 |
| CCN(CC)S(=O)(=O)c1ccc2c(c1)cc(C(=O)N1CCCC1)n2C | -13 | 1.87 |
| Brc1ccccc1C1(CNCc2ncc[nH]2)CC1 | -13 | 1.96 |

| SMILES | % Inhibition [%] | Z score |
| --- | --- | --- |
| CCc1n[nH]c(NS(=O)(=O)c2cccnc2C(F)(F)F)n1 | -13 | 1.23 |
| CCNC(=O)c1ccc(NC(=O)N2CCC3CCC(C2)N3C)cc1 (centres undefined) | -3 | 0.53 |
| CS(=O)(=O)N1CCC[C@H]1C(=O)NCCc1nc2ccccc2o1 | -5 | 1.04 |
| CC(C)[C@H]1CN(Cc2ccc3cccc(Cl)c3n2)C[C@@H]1N(C)C | -1 | 0.21 |
| CC(C)n1nccc1NC(=O)CCOc1ccccc1 | -4 | 0.55 |
| CC[C@H](Oc1ccccc1C)c1nnc(C2(c3ccccc3)CCC2)o1 | -10 | 1.18 |
| Cc1cccc(CN2C[C@@H](c3noc(-c4ccccn4)n3)CC2=O)c1 | 33 | -4.27 |
| CCC(CC)N(CC)C(=O)c1ccc(C(=O)O)cc1F | -12 | 1.91 |
| Cc1nnsc1C(=O)Nc1nc(-c2ccsc2)ns1 | 5 | -0.64 |
| CCOC(=O)c1sc(=S)n(CC)c1NC(=O)c1ccccc1Cl | 12 | -1.48 |
| CC(C)NC(=O)[C@@H]1C[C@@H](NCc2cccc3ccccc23)CN1C(C)C | -10 | 1.26 |
| COc1cccc2c1OCc1cn(nn1)[C@H]1CN(C(=O)c3cn(C)c4ccccc34)C[C@H]1CC(=O)NCCN(C)C2=O | -18 | 2.24 |
| Oc1cc(C(F)(F)F)nc(CNc2ccc(Cl)c(Cl)c2)n1 | 6 | -1.09 |
| CN(C)C(=O)NCCNS(=O)(=O)C[C@H]1CC2(CCC2)CO1 | 2 | -0.45 |
| Nc1c(C(=O)NCCc2ccccc2)sc(=S)n1C1CC1 | 4 | -0.46 |
| O=C(c1ccc(S(=O)(=O)N2CCOCC2)cc1)N1CCC[C@H]1c1cccs1 | -6 | 0.59 |
| Cn1cccc1C(=O)OCC(C)(C)C1OCC(C)(C)CO1 | -4 | 0.41 |
| COc1cccc2nc(NC(=O)NCC[C@H]3CC(=O)N(C)C3)sc12 | -6 | 0.94 |
| O=S(=O)(C1CC1)N1CCCC[C@H](c2ccc(F)cc2)C1 | -11 | 1.66 |
| CCOC(=O)c1[nH]c(C2CCN(CC(=O)OC)CC2)nc1C | -2 | 0.22 |
| Cc1ncc(C(=O)NC2CN(Cc3ccccc3)CCC2CO)s1 (centres undefined) | -4 | 0.7 |
| Cc1nccn1CCCCNS(=O)(=O)c1cc(Cl)cnc1N | 1 | -0.11 |
| CC1(C)C2CN(C(=O)Nc3cccc(OCCn4cccn4)c3)CC21 (centres undefined) | 2 | -0.34 |
| CC(NCc1nc2ccc(Br)cc2o1)C1CCOC1 (centres undefined) | 0 | -0.04 |
| O=C(NC1=NN2C(=NC(c3ccccc3)=C[C@H]2c2ccc(F)cc2)N1)c1ccccc1 | -11 | 1.69 |
| O=C(Cn1c(=O)[nH]c2c(-c3ccccc3)c[nH]c2c1=O)NCc1ccccn1 | -7 | 1 |
